# Several values for one entry are separate records, joined by “and”; a condition that tells them apart may be missing. Equal entries are not always repeated. About 6,400 (1.6%) of roughly 410,000 compounds were called active. The inconclusive results got no clear call from the source; some entries with a clear call stand among them for comparison. Calls come from the whole dose curve; as a rule, active = well fitted inhibition curve with a large enough effect; inconclusive = small, poorly fitted or top-dose-only effect; inactive = no such curve, though single readings can be large or run the other way. Potencies of inconclusive entries are doubtful fits and often do not repeat.
# Target: Glucagon-like peptide 1 receptor (Homo sapiens) (UniProt P43220)
# UniProt P43220, sequence (P43220 whole entry, looked up): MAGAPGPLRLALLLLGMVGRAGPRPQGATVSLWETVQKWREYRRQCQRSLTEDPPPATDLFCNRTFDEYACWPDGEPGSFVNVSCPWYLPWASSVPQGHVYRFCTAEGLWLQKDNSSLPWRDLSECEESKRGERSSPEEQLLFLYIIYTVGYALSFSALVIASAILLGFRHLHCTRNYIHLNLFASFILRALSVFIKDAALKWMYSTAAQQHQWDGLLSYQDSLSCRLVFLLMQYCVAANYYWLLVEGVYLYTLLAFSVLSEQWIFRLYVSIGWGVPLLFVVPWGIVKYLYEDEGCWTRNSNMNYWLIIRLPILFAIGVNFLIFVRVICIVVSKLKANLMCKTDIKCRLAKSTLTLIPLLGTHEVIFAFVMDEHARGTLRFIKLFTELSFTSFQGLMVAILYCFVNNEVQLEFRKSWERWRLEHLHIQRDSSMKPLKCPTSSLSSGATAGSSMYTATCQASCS
# Experiment: qHTS of GLP-1 Receptor Inverse Agonists (Inhibition Mode); note: nearly all actives have a fitted effect of over 55% in size
# Conditions: HEK293 GLP-1R CRE-luciferase, luminescence, 24 h, GLP-1R form is constitutively active; activity change, negative = inhibition: at 38.3 µM (top of the series) unless noted
# In short: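 Readout was luciferase luminescence, measured 12 min after detection reagent at room temperature. Beforehand, GLP-1R reporter HEK293 cells had sat 12 h, then received compounds for 24 hr at 37 deg C.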
# % is set by controls: 0 for no effect and ±100 for the full control effect; potency is the fitted concentration of half-maximal effect; tags give direction and shape of the fitted curve.
Compound,"activity change, negative = inhibition",Potency
NC(=O)c1cccnc1OCC(F)(F)F,inactive: 1.61%,
Cc1ccc(S(=O)(=O)c2nc(Cc3ccccc3)oc2N2CCOCC2)cc1,inactive: 6.74%,
CCOc1ccc(CCN2C(=S)N([C@@H](Cc3ccccc3)CN3CCC[C@@H]3CN3C(=S)NC[C@@H]3Cc3ccc(O)cc3)C[C@@H]2CC(C)C)cc1,,"inconclusive: 11.2 µM [inhibitor, partial curve, poor fit]"
CCOc1ccc(N(CC(=O)NC2CCCC2)C(=O)CSc2nnc(COc3ccccc3)o2)cc1,,"inconclusive: 14.1 µM [inhibitor, single point]"
CCN(CC)c1cc(C)c2cc(NC(=O)c3ccccc3Cl)ccc2n1,,"inconclusive: 10 µM [inhibitor, partial curve]"
CCOc1ccc2[nH]c3c(N4CCc5ccccc5C4)ncnc3c2c1,,"inconclusive: 8.91 µM [inhibitor, partial curve, poor fit]"
COc1ccc(CNC(=O)Nc2cccc(C(F)(F)F)c2)cc1OC,,"inconclusive: 12.6 µM [inhibitor, partial curve, poor fit]"
CCC1CN(C(=O)NCc2ccccc2)c2cc(Cl)ccc2O1 (stereo unspecified),,"inconclusive: 11.2 µM [inhibitor, single point] and inconclusive: 11.2 µM [inhibitor, partial curve, poor fit]"
CCOC(=O)NC(Nc1nc2ccccc2s1)(C(=O)OCC)C(F)(F)F (stereo unspecified),,"inconclusive: 8.91 µM [inhibitor, partial curve]"
Cc1ccc(C(C)C)c(OCCCN2CCc3ccccc3C2)c1,,"inconclusive: 11.2 µM [inhibitor, partial curve, poor fit]"
O=C(CCCSc1ccccc1)Nc1ccc(Cl)c(S(=O)(=O)N2CCOCC2)c1,,"inconclusive: 10 µM [inhibitor, partial curve, poor fit]"
CCOC(=O)c1c(C)[nH]c(C)c1S(=O)(=O)NCC1CCN(Cc2cccc(F)c2)CC1,,"inconclusive: 10 µM [inhibitor, partial curve, poor fit]"
CC(C)(C)OC(=O)N1CCC(c2c(C(=O)Nc3ccc4c(c3)OCCO4)cnn2-c2ccc(F)cc2F)CC1,,"inconclusive: 12.6 µM [inhibitor, partial curve, poor fit]"
Cn1cnc2c(=O)oc3ccc(S(=O)(=O)N4CCN(c5cccc(C(F)(F)F)c5)CC4)cc3c21,inactive: 11.4%,
COc1ccc(Nc2nc(S(=O)(=O)c3ccc(C)cc3)c(Cl)s2)cc1,,"inconclusive: 11.2 µM [inhibitor, partial curve, poor fit]"
NC(=O)C1C(=O)c2ccccc2C1(C[N+](=O)[O-])c1ccccc1 (stereo unspecified),,"inconclusive: 0.891 µM [inhibitor, full curve, poor fit]"
C(=N/Nc1cc(N2CCOCC2)nc(N2CCOCC2)n1)/c1ccccc1,,"inconclusive: 2.24 µM [inhibitor, full curve, poor fit]"
O=C(CSCc1ccc(Cl)c(Cl)c1)Nc1c[nH]c(=O)[nH]c1=O,inactive: 14.2%,
O=C(Nc1nccs1)NC1CCCCC1,,"inconclusive: 3.16 µM [inhibitor, full curve]"
CCOC(=O)c1c(C)[nH]c(C)c1S(=O)(=O)N(C)CC(=O)N1CCN(c2ccc(Cl)cc2)CC1,,"inconclusive: 10 µM [inhibitor, partial curve, poor fit]"
COc1ccc(CNCc2ccccc2C(F)(F)F)cc1,,"inconclusive: 7.94 µM [inhibitor, partial curve, poor fit]"

Compound,"activity change, negative = inhibition",Potency
O=C(NCCC1=CCCCC1)c1ccc(CN2CCOCC2)cc1,,"inconclusive: 12.6 µM [inhibitor, single point]"
CCC(CC)C(=O)OCc1cc(=O)n2nc(C3CCCCC3)sc2n1,,"inconclusive: 28.2 µM [inhibitor, single point]"
Cc1ccc(-c2c(C(=O)N3CCN(c4cccc(C)c4)C(C)C3)oc(=O)c3ccccc23)cc1 (stereo unspecified),,"inconclusive: 10 µM [inhibitor, partial curve, poor fit]"
NS(=O)(=O)c1ccc(NCc2cc(Cl)ccc2OCc2ccccc2F)cc1,,"inconclusive: 28.2 µM [inhibitor, single point]"
CCOc1ccc(N2C(=O)CS(=O)(=O)C23C(=O)N(Cc2cccc(Cl)c2)c2ccccc23)cc1 (stereo unspecified),inactive: -29%,
Clc1ccc(-c2nnc3n2-c2ccccc2SC3)cc1,,"inconclusive: 10 µM [inhibitor, single point]"
Cc1ccc(C(=O)NC2CCN(CC(=O)Nc3c(C)cc(C)cc3C)CC2)cc1,inactive: 4.45%,
CC(C)C[C@H]1CNC(=S)N1C[C@H]1CCCN1C[C@H](Cc1ccccc1)N1C[C@H](Cc2ccc(O)cc2)N(CC2CCCCC2)C1=S,,"inconclusive: 12.6 µM [inhibitor, single point]"
Cc1ccc(-c2nn(C)c(=O)c3ccccc23)cc1S(=O)(=O)NCCN1CCOCC1,inactive: 102%,
CC(C)(C)C(=O)Cn1c(=N)n(Cc2ccccc2Cl)c2ccccc21,,"inconclusive: 2.24 µM [inhibitor, full curve, poor fit]"
CCN1CCN(C(=O)c2cc3cc(Cl)ccc3[nH]2)CC1,,"inconclusive: 2.82 µM [inhibitor, partial curve, poor fit]"
O=c1[nH]c(NCc2ccco2)nnc1Cc1ccccc1Cl,,"inconclusive: 6.31 µM [inhibitor, partial curve, poor fit]"
COC(=O)[C@@]12C[C@@H](CC(=O)NCc3cccc(C(F)(F)F)c3)C(=O)N(CCc3ccc(OC)c(OC)c3)C1=CCC(C)(C)C2,,"inconclusive: 14.1 µM [inhibitor, partial curve, poor fit]"
CC1CN(C(=O)c2cc3cc(Cl)ccc3[nH]2)CC(C)O1 (stereo unspecified),,"inconclusive: 12.6 µM [inhibitor, partial curve, poor fit]"
CC(C)Cc1nc2oc3c(NCC4CCCO4)ncnc3c2c2c1CCC2 (stereo unspecified),inactive: 5.19%,
Cc1ccc(C(=O)Nc2ccncc2)cc1[N+](=O)[O-],inactive: 12.4%,
COc1ccccc1-c1cnc(C(O)c2ccc(Cl)c(Cl)c2)[nH]1 (stereo unspecified),,"inconclusive: 22.4 µM [inhibitor, single point]"
OC(CSc1ccc(F)cc1)CN1CCN(c2ccccc2)CC1 (stereo unspecified),,"inconclusive: 8.91 µM [inhibitor, partial curve, poor fit]"
O=C(N/N=C/C=C/c1ccco1)c1cccnc1,inactive: 2.73%,
CC(=O)Nc1ccc(SCc2ncc(-c3ccccc3)o2)cc1,,"inconclusive: 12.6 µM [inhibitor, single point]"
Cc1ccc(-c2cc(-c3ccccc3C)[nH]n2)c(O)c1,,"inconclusive: 5.62 µM [inhibitor, full curve, poor fit]"

Compound,"activity change, negative = inhibition",Potency
CCn1c2ccccc2c2cc(NC(=O)C(C)Oc3ccc(OC)cc3)ccc21 (stereo unspecified),,"inconclusive: 0.316 µM [inhibitor, full curve, poor fit]"
CC(=O)c1cccc(-c2ccnc3c2CC(C(=O)NCc2ccc(F)c(F)c2)O3)c1 (stereo unspecified),,"inconclusive: 2.51 µM [inhibitor, full curve, poor fit]"
O=C(CCCSc1nc2ccccc2[nH]1)N1CCN(c2ccccc2)CC1,inactive: -2.86%,
CC1=C(C(=O)Nc2cc(Cl)ccc2C)C2(CCCCC2)OC1=O,,"inconclusive: 28.2 µM [inhibitor, single point]"
CCOC(=O)N1C(=O)C2(CCCCC2)N(c2ccccc2Cl)C1=S,,"inconclusive: 31.6 µM [inhibitor, single point]"
O=C(N/N=C/c1c[nH]c2ccccc12)C1COc2ccccc2O1 (stereo unspecified),,"inconclusive: 10 µM [inhibitor, partial curve, poor fit]"
Cc1ccc(S(=O)(=O)NCC2(c3ccccc3)CCN(C)CC2)cc1,,"inconclusive: 22.4 µM [inhibitor, single point]"
COC(=O)c1cc2ccsc2n1CC(=O)N(C)c1ccccc1,,"inconclusive: 7.94 µM [inhibitor, partial curve, poor fit]"
CCOC(=O)C(=O)Nc1ccccc1C(=O)OCC,inactive: 18.9%,
O=[N+]([O-])c1ccc(NS(=O)(=O)c2ccccc2)c(Cl)c1,,"inconclusive: 31.6 µM [inhibitor, single point]"
CC(C)C1C(=O)N(Cc2cn(CC3CCCCC3)nn2)CCS(=O)(=O)N1Cc1ccc(-c2ccc(Cl)nc2)cc1 (stereo unspecified),,"inconclusive: 28.2 µM [inhibitor, single point]"
FC(F)(F)c1cccc(Cn2c3[n+](c4ccc(C(F)(F)F)cc42)CCCCC3)c1,,"inconclusive: 10 µM [inhibitor, single point]"
O=S1(=O)CC(N2CCN(Cc3ccccc3F)CC2)CN1Cc1cn(Cc2ccc(C(F)(F)F)cc2)nn1 (stereo unspecified),,"inconclusive: 28.2 µM [inhibitor, single point]"
O=S1(=O)CC(N2CCC(c3ccccc3)CC2)CN1Cc1ccccc1 (stereo unspecified),,"inconclusive: 8.91 µM [inhibitor, partial curve, poor fit]"
Fc1ccc(N/N=C/c2ccc(N3CCOCC3)cc2)c(F)c1,,"inconclusive: 2 µM [inhibitor, full curve, poor fit]"
O=C(/C=C/c1cn(CC(O)CN2CCCCC2)c2ccccc12)c1ccccc1 (stereo unspecified),,"inconclusive: 1.78 µM [inhibitor, partial curve, poor fit]"
Cc1ccc(C(=O)CCS(=O)(=O)c2ccc(Br)cc2)cc1,inactive: 5.65%,
Cc1c(NC(=O)Nc2ccc(F)cc2F)c(=O)n(-c2ccccc2)n1C,,"inconclusive: 28.2 µM [inhibitor, single point]"
COc1ccc(OC)c(CNC(=O)Cn2ncc3c([nH]c4ccc(C)cc43)c2=O)c1,inactive: 10.9%,

# From PubChem BioAssay AID624417 (National Center for Advancing Translational Sciences (NCATS), 2012)
